Measured values: patent publication US12097241B2, “Methods of treating kidney failure, and/or improving or stablizing renal function using modified relaxin polypeptides” (BRISTOL-MYERS SQUIBB COMPANY, priority 2017, dated 2024)
Part of at least one peptide drawing is inferred or uncertain, most often the ends. Marks after values point to notes of the source that are not given here.

Assay: Rat renal blood flow studies
Format: in vivo, Sprague Dawley rats
Details: 1 mg/kg intravenously; for % change in RBF over baseline: anesthetized male Sprague Dawley rats, renal blood flow recorded for 45 min
Procedure: Male Sprague Dawley rats (˜250-300 g) were anesthetized with sodium pentobarbital (50 mg/kg), the trachea was cannulated with PE-205 tubing to maintain airway patency, and temperature was maintained at 37° C. with a heated surgical plate. A 1.4 F pressure catheter (Millar Inc., Houston, TX) was advanced into the right carotid artery to measure aortic blood pressure. The right jugular vein was cannulated with PE-50 tubing for administration of test articles. The left kidney was exposed by a retroperitoneal incision, and a Doppler flow probe (Model 0.5 VB, Transonic System Inc., Ithaca, NY) was attached to the left renal artery to monitor blood flow. Sodium pentobarbital (15 mg/kg, intraperitoneal) was supplemented after completion of these surgical procedures. Following a 10-15 min equilibration, the relaxin was administered at 1 mg/kg intravenously in a dosing volume of 0.15 to 1.82 mL/kg over 30 seconds via an infusion pump (Harvard Apparatus, Holliston, MA). Blood pressure, heart rate and renal blood flow were continuously recorded for 45 min after relaxin administration using a Millar MPVS Ultra Signal Conditioning unit connected to a desktop computer running LabChart 7-Pro data acquisition software (ADInstruments, Dunedin, New Zealand) (Table 5). Table 5. Rat renal blood flow changes (abbreviations as in Table 3).

Row | SMILES | % change in RBF over baseline | effect on renal blood flow (in words) (rats)
1 | CC[C@H](C)[C@@H]1NC(=O)[C@H](C)NC(=O)[C@H]([C@@H](C)CC)NC(=O)[C@H](CCC(N)=O)NC(=O)[C@H](C)NC(=O)[C@H](CCCNC(=N)N)NC(=O)[C@H](C(C)C)NC(=O)[C@H](CC(C)C)NC(=O)[C@H](CCC(=O)O)NC(=O)[C@H](CCCNC(=N)N)NC(=O)CNC(=O)[C@@H](NC(=O)[C@H](CC(C)C)NC(=O)[C@H](CCCCN)NC(=O)[C@@H](NC(=O)[C@@H](NC(=O)[C@H](CCC(=O)O)NC(=O)[C@H](CCC(=O)O)NC(=O)[C@H](CCSC)NC(=O)[C@H](Cc2c[nH]c3ccccc23)NC(=O)[C@H](CO)NC(=O)[C@H](C)N)C(C)C)[C@@H](C)CC)CSSC[C@@H]2NC(=O)[C@@H](NC(=O)[C@H](CCCCN)NC(=O)[C@H](CC(N)=O)NC(=O)[C@H](C)NC(=O)[C@H](CC(C)C)NC(=O)[C@H](C)NC(=O)[C@H](CO)NC(=O)[C@H](Cc3ccc(O)cc3)NC(=O)[C@H](CC(C)C)NC(=O)[C@@H](N)Cc3ccc(C(C)=NOCCNC(=O)[C@H](CC(=O)O)NC(=O)[C@H](CCCNC(=N)N)NC(=O)[C@H](CC(=O)O)NC(=O)[C@H](CC(=O)O)NC(=O)[C@H](CCCNC(=N)N)NC(=O)[C@H](CC(=O)O)NC(=O)CCCCCCCCCCCCC(=O)O)cc3)CSSC[C@H](NC(=O)CNC(=O)[C@H](C(C)C)NC(=O)[C@H](Cc3c[nH]cn3)NC2=O)C(=O)N[C@@H]([C@@H](C)O)C(=O)N[C@@H](CCCCN)C(=O)N[C@@H](CCCNC(=N)N)C(=O)N[C@@H](CO)C(=O)N[C@@H](CC(C)C)C(=O)N[C@@H](C)C(=O)N[C@@H](CCCNC(=N)N)C(=O)N[C@@H](Cc2ccccc2)C(=O)N[C@H](C(=O)O)CSSC[C@@H](C(=O)NCC(=O)N[C@@H](CCSC)C(=O)N[C@@H](CO)C(=O)N[C@H](C(=O)N[C@@H](Cc2c[nH]c3ccccc23)C(=O)N[C@@H](CO)C(=O)O)[C@@H](C)O)NC1=O [AQ1-DRDDRD-C13-COOH] | +11% | 
2 | CCCCCCCCCCCCCC(=O)N[C@@H](CCC(=O)NCC(=O)NCC(=O)NCC(=O)N[C@@H](CCC(=O)O)C(=O)N[C@@H](CCC(=O)O)C(=O)N[C@@H](CCC(=O)O)C(=O)NCCON=C(C)c1ccc(C[C@H](N)C(=O)N[C@@H](CC(C)C)C(=O)N[C@@H](Cc2ccc(O)cc2)C(=O)N[C@@H](CO)C(=O)N[C@@H](C)C(=O)N[C@@H](CC(C)C)C(=O)N[C@@H](C)C(=O)N[C@@H](CC(N)=O)C(=O)N[C@@H](CCCCN)C(=O)N[C@H]2CSSC[C@@H]3NC(=O)CNC(=O)[C@H](C(C)C)NC(=O)[C@H](Cc4c[nH]cn4)NC(=O)[C@H](CSSC[C@H](NC(=O)[C@H](CC(C)C)NC(=O)[C@H](CCCCN)NC(=O)[C@@H](NC(=O)[C@@H](NC(=O)[C@H](CCC(=O)O)NC(=O)[C@H](CCC(=O)O)NC(=O)[C@H](CCSC)NC(=O)[C@H](Cc4c[nH]c5ccccc45)NC(=O)[C@H](CO)NC(=O)[C@H](C)N)C(C)C)[C@@H](C)CC)C(=O)NCC(=O)N[C@@H](CCCNC(=N)N)C(=O)N[C@@H](CCC(=O)O)C(=O)N[C@@H](CC(C)C)C(=O)N[C@@H](C(C)C)C(=O)N[C@@H](CCCNC(=N)N)C(=O)N[C@@H](C)C(=O)N[C@@H](CCC(N)=O)C(=O)N[C@@H]([C@@H](C)CC)C(=O)N[C@@H](C)C(=O)N[C@@H]([C@@H](C)CC)C(=O)N[C@H](C(=O)NCC(=O)N[C@@H](CCSC)C(=O)N[C@@H](CO)C(=O)N[C@H](C(=O)N[C@@H](Cc4c[nH]c5ccccc45)C(=O)N[C@@H](CO)C(=O)O)[C@@H](C)O)CSSC[C@@H](C(=O)O)NC(=O)[C@H](Cc4ccccc4)NC(=O)[C@H](CCCNC(=N)N)NC(=O)[C@H](C)NC(=O)[C@H](CC(C)C)NC(=O)[C@H](CO)NC(=O)[C@H](CCCNC(=N)N)NC(=O)[C@H](CCCCN)NC(=O)[C@H]([C@@H](C)O)NC3=O)NC2=O)cc1)C(=O)O [AQ1-EEEGGG-Glu^γ-C13-CH3] | +1% | 
3 | CC[C@H](C)[C@@H]1NC(=O)[C@H](C)NC(=O)[C@H]([C@@H](C)CC)NC(=O)[C@H](CCC(N)=O)NC(=O)[C@H](C)NC(=O)[C@H](CCCNC(=N)N)NC(=O)[C@H](C(C)C)NC(=O)[C@H](CC(C)C)NC(=O)[C@H](CCC(=O)O)NC(=O)[C@H](CCCNC(=N)N)NC(=O)CNC(=O)[C@@H](NC(=O)[C@H](CC(C)C)NC(=O)[C@H](CCCCN)NC(=O)[C@@H](NC(=O)[C@@H](NC(=O)[C@H](CCC(=O)O)NC(=O)[C@H](CCC(=O)O)NC(=O)[C@H](CCSC)NC(=O)[C@H](Cc2c[nH]c3ccccc23)NC(=O)[C@H](CO)NC(=O)[C@H](C)N)C(C)C)[C@@H](C)CC)CSSC[C@@H]2NC(=O)[C@@H](NC(=O)[C@H](CCCCN)NC(=O)[C@H](CC(N)=O)NC(=O)[C@H](C)NC(=O)[C@H](CC(C)C)NC(=O)[C@H](C)NC(=O)[C@H](CO)NC(=O)[C@H](Cc3ccc(O)cc3)NC(=O)[C@H](CC(C)C)NC(=O)[C@@H](N)Cc3ccc(C(C)=NOCCNC(=O)[C@H](CCC(=O)O)NC(=O)[C@H](CCC(=O)O)NC(=O)[C@H](CCC(=O)O)NC(=O)CNC(=O)CNC(=O)CNC(=O)CC[C@H](NC(=O)CCCCCCCCCCCCC(=O)O)C(=O)O)cc3)CSSC[C@H](NC(=O)CNC(=O)[C@H](C(C)C)NC(=O)[C@H](Cc3c[nH]cn3)NC2=O)C(=O)N[C@@H]([C@@H](C)O)C(=O)N[C@@H](CCCCN)C(=O)N[C@@H](CCCNC(=N)N)C(=O)N[C@@H](CO)C(=O)N[C@@H](CC(C)C)C(=O)N[C@@H](C)C(=O)N[C@@H](CCCNC(=N)N)C(=O)N[C@@H](Cc2ccccc2)C(=O)N[C@H](C(=O)O)CSSC[C@@H](C(=O)NCC(=O)N[C@@H](CCSC)C(=O)N[C@@H](CO)C(=O)N[C@H](C(=O)N[C@@H](Cc2c[nH]c3ccccc23)C(=O)N[C@@H](CO)C(=O)O)[C@@H](C)O)NC1=O [AQ1-EEEGGG-Glu^γ-C13-COOH] | +7^b % | 
4 | CCCCCCCCCCCCCCCC(=O)N[C@@H](CCC(=O)NCC(=O)NCC(=O)NCC(=O)N[C@@H](CCC(=O)O)C(=O)N[C@@H](CCC(=O)O)C(=O)N[C@@H](CCC(=O)O)C(=O)NCCON=C(C)c1ccc(C[C@H](N)C(=O)N[C@@H](CC(C)C)C(=O)N[C@@H](Cc2ccc(O)cc2)C(=O)N[C@@H](CO)C(=O)N[C@@H](C)C(=O)N[C@@H](CC(C)C)C(=O)N[C@@H](C)C(=O)N[C@@H](CC(N)=O)C(=O)N[C@@H](CCCCN)C(=O)N[C@H]2CSSC[C@@H]3NC(=O)CNC(=O)[C@H](C(C)C)NC(=O)[C@H](Cc4c[nH]cn4)NC(=O)[C@H](CSSC[C@H](NC(=O)[C@H](CC(C)C)NC(=O)[C@H](CCCCN)NC(=O)[C@@H](NC(=O)[C@@H](NC(=O)[C@H](CCC(=O)O)NC(=O)[C@H](CCC(=O)O)NC(=O)[C@H](CCSC)NC(=O)[C@H](Cc4c[nH]c5ccccc45)NC(=O)[C@H](CO)NC(=O)[C@H](C)N)C(C)C)[C@@H](C)CC)C(=O)NCC(=O)N[C@@H](CCCNC(=N)N)C(=O)N[C@@H](CCC(=O)O)C(=O)N[C@@H](CC(C)C)C(=O)N[C@@H](C(C)C)C(=O)N[C@@H](CCCNC(=N)N)C(=O)N[C@@H](C)C(=O)N[C@@H](CCC(N)=O)C(=O)N[C@@H]([C@@H](C)CC)C(=O)N[C@@H](C)C(=O)N[C@@H]([C@@H](C)CC)C(=O)N[C@H](C(=O)NCC(=O)N[C@@H](CCSC)C(=O)N[C@@H](CO)C(=O)N[C@H](C(=O)N[C@@H](Cc4c[nH]c5ccccc45)C(=O)N[C@@H](CO)C(=O)O)[C@@H](C)O)CSSC[C@@H](C(=O)O)NC(=O)[C@H](Cc4ccccc4)NC(=O)[C@H](CCCNC(=N)N)NC(=O)[C@H](C)NC(=O)[C@H](CC(C)C)NC(=O)[C@H](CO)NC(=O)[C@H](CCCNC(=N)N)NC(=O)[C@H](CCCCN)NC(=O)[C@H]([C@@H](C)O)NC3=O)NC2=O)cc1)C(=O)O [AQ1-EEEGGG-Glu^γ-C15-CH3] | +18% | good renal blood flow
